# Assay results reported in the supplement of paper PMC4604168 (melanoma cell lines).
# This is one part of the list. Many values rest on one well or one pass, so single values are uncertain.
# What was measured:
# Assay in all cases: cell count relative to DMSO control; melanoma cells; higher = more viable cells
# Settings in all cases: library dose: low library concentration; 72 h
# [1] = test system: MZ2-MEL
# [2] = test system: MeWo
# [3] = test system: RPMI7951
# [4] = test system: RVH-421
# [5] = test system: SkMel28
# [6] = test system: SkMel2
# [7] = test system: SkMel30
# [8] = test system: SkMel5
# [9] = test system: UACC257
# [10] = test system: UACC62
# 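Also: cell number obtained by counting DAPI-stained nuclei in high-throughput microscope images with image analysis software, screen run in 1,536-well plates.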
structure (smiles),measurement,setting,value
"Nc1ncn([C@H]2C[C@H](O)[C@@H](CO)O2)c(=O)n1 [decitabine] + C/C(O)=C(\C#N)C(=O)Nc1cc(Br)ccc1Br [LFM-A13] (first compound 0.1 µM, partner dose 2 µM)",cell count,[1],89.9%
same,cell count,[2],100%
same,cell count,[3],74.8%
same,cell count,[4],91.4%
same,cell count,[5],77.7%
same,cell count,[6],103%
same,cell count,[7],78.6%
same,cell count,[8],93.6%
same,cell count,[9],96.4%
same,cell count,[10],66.7%
"CCN(CC)CCNC(=O)c1c(C)[nH]c(/C=C2\C(=O)Nc3ccc(F)cc32)c1C [sunitinib] + C/C(O)=C(\C#N)C(=O)Nc1cc(Br)ccc1Br [LFM-A13] (first compound 0.4 µM, partner dose 2 µM)",cell count,[1],99.8%
same,cell count,[2],81.9%
same,cell count,[3],101%
same,cell count,[4],147%
same,cell count,[5],84.7%
same,cell count,[6],109%
same,cell count,[7],68.5%
same,cell count,[8],111%
same,cell count,[9],96.4%
same,cell count,[10],91.4%
"C[C@]1(O)C[C@@H](c2nc(-c3ccc4ccc(-c5ccccc5)nc4c3)c3c(N)nccn32)C1 + O=C(Oc1ccc([N+](=O)[O-])cc1)N1CCC(C(O)(c2ccc3c(c2)OCO3)c2ccc3c(c2)OCO3)CC1 [JZL184] (first compound 0.4 µM, partner dose 1 µM)",cell count,[1],94.9%
same,cell count,[2],100%
same,cell count,[3],99.4%
same,cell count,[4],115%
same,cell count,[5],109%
same,cell count,[6],98.2%
same,cell count,[7],95.3%
same,cell count,[8],86%
same,cell count,[9],93.8%
same,cell count,[10],75.8%
"CNC(=O)c1cc(Oc2ccc(NC(=O)Nc3ccc(Cl)c(C(F)(F)F)c3)cc2)ccn1 [sorafenib] + Cc1cc(SCc2sc(-c3ccc(C(F)(F)F)c(F)c3)nc2C)ccc1OCC(=O)O [GW0742] (first compound 0.4 µM, partner dose 2 µM)",cell count,[1],93.6%
same,cell count,[2],96.4%
same,cell count,[3],96.9%
same,cell count,[4],119%
same,cell count,[5],90.3%
same,cell count,[6],114%
same,cell count,[7],89.2%
same,cell count,[8],110%
same,cell count,[9],103%
same,cell count,[10],95.7%
"NC(=O)c1ccc(N(C(N)=O)c2c(F)cccc2F)nc1-c1ccc(F)cc1F + O=C(Oc1ccc([N+](=O)[O-])cc1)N1CCC(C(O)(c2ccc3c(c2)OCO3)c2ccc3c(c2)OCO3)CC1 [JZL184] (first compound 0.4 µM, partner dose 1 µM)",cell count,[1],102%
same,cell count,[2],94.3%
same,cell count,[3],98.6%
same,cell count,[4],88.1%
same,cell count,[5],113%
same,cell count,[6],114%
same,cell count,[7],100%
same,cell count,[8],115%
same,cell count,[9],93.5%
same,cell count,[10],94.6%
"Cn1c(=O)n(-c2ccc(C(C)(C)C#N)cc2)c2c3cc(-c4cnc5ccccc5c4)ccc3ncc21 + Cc1cc(SCc2sc(-c3ccc(C(F)(F)F)c(F)c3)nc2C)ccc1OCC(=O)O [GW0742] (first compound 0.004 µM, partner dose 2 µM)",cell count,[1],108%
same,cell count,[2],107%
same,cell count,[3],86.2%
same,cell count,[4],97.6%
same,cell count,[5],97.4%
same,cell count,[6],95.8%
same,cell count,[7],102%
same,cell count,[8],103%
same,cell count,[9],96%
same,cell count,[10],106%
"Nc1ncn([C@H]2C[C@H](O)[C@@H](CO)O2)c(=O)n1 [decitabine] + Cc1cc(SCc2sc(-c3ccc(C(F)(F)F)c(F)c3)nc2C)ccc1OCC(=O)O [GW0742] (first compound 0.1 µM, partner dose 2 µM)",cell count,[1],91.2%
same,cell count,[2],89.9%
same,cell count,[3],80%
same,cell count,[4],97.4%
same,cell count,[5],94.7%
same,cell count,[6],97.3%
same,cell count,[7],104%
same,cell count,[8],113%
same,cell count,[9],111%
same,cell count,[10],76.9%
"COc1cc([C@@H]2c3cc4c(cc3[C@@H](O[C@@H]3O[C@@H]5CO[C@@H](C)O[C@H]5[C@H](O)[C@H]3O)[C@H]3COC(=O)[C@H]23)OCO4)cc(OC)c1O [etoposide] + C/C(O)=C(\C#N)C(=O)Nc1cc(Br)ccc1Br [LFM-A13] (first compound 0.02 µM, partner dose 2 µM)",cell count,[1],95.4%
same,cell count,[2],102%
same,cell count,[3],86.9%
same,cell count,[4],105%
same,cell count,[5],95.4%
same,cell count,[6],95.8%
same,cell count,[7],112%
same,cell count,[8],107%
same,cell count,[9],99.2%
same,cell count,[10],69.9%
"C[C@@H](N)c1ccc(C(=O)Nc2ccnc3[nH]ccc23)cc1 + C/C(O)=C(\C#N)C(=O)Nc1cc(Br)ccc1Br [LFM-A13] (first compound 0.4 µM, partner dose 2 µM)",cell count,[1],70.9%
same,cell count,[2],92%
same,cell count,[3],75.7%
same,cell count,[4],97.6%
same,cell count,[5],73.2%
same,cell count,[6],107%
same,cell count,[7],93.6%
same,cell count,[8],73.7%
same,cell count,[9],78.7%
same,cell count,[10],78.5%
"CS(=O)(=O)c1ccc(C(=O)Nc2ccc(Cl)c(-c3ccccn3)c2)c(Cl)c1 [vismodegib] + Cc1cc(SCc2sc(-c3ccc(C(F)(F)F)c(F)c3)nc2C)ccc1OCC(=O)O [GW0742] (first compound 1 µM, partner dose 2 µM)",cell count,[1],105%
same,cell count,[2],101%
same,cell count,[3],99.8%
same,cell count,[4],111%
same,cell count,[5],106%
same,cell count,[6],104%
same,cell count,[7],87.8%
same,cell count,[8],120%
same,cell count,[9],107%
same,cell count,[10],123%
"C=C(c1ccc(C(=O)O)cc1)c1cc2c(cc1C)C(C)(C)CCC2(C)C [Bexarotene] + O=C(Oc1ccc([N+](=O)[O-])cc1)N1CCC(C(O)(c2ccc3c(c2)OCO3)c2ccc3c(c2)OCO3)CC1 [JZL184] (first compound 2 µM, partner dose 1 µM)",cell count,[1],106%
same,cell count,[2],100%
same,cell count,[3],94.8%
same,cell count,[4],86.8%
same,cell count,[5],85.3%
same,cell count,[6],94.3%
same,cell count,[7],96.5%
same,cell count,[8],96.1%
same,cell count,[9],113%
same,cell count,[10],99.3%
"CCCCCCCCc1ccc(CCC(N)(CO)CO)cc1 [fingolimod] + C/C(O)=C(\C#N)C(=O)Nc1cc(Br)ccc1Br [LFM-A13] (first compound 2 µM, partner dose 2 µM)",cell count,[1],96.4%
same,cell count,[2],86.9%
same,cell count,[3],72.7%
same,cell count,[4],85.8%
same,cell count,[5],80.2%
same,cell count,[6],93.9%
same,cell count,[7],99.3%
same,cell count,[8],78.9%
same,cell count,[9],111%
same,cell count,[10],68.2%
"Cn1cnc2c(F)c(Nc3ccc(Br)cc3Cl)c(C(=O)NOCCO)cc21 [selumetinib] + Cc1cc(SCc2sc(-c3ccc(C(F)(F)F)c(F)c3)nc2C)ccc1OCC(=O)O [GW0742] (first compound 0.015 µM, partner dose 2 µM)",cell count,[1],92%
same,cell count,[2],96.7%
same,cell count,[3],113%
same,cell count,[4],90.9%
same,cell count,[5],78.1%
same,cell count,[6],87.5%
same,cell count,[7],66.1%
same,cell count,[8],108%
same,cell count,[9],103%
same,cell count,[10],69.7%
"NC1(c2ccc(-c3nc4ccn5c(=O)[nH]nc5c4cc3-c3ccccc3)cc2)CCC1 + C/C(O)=C(\C#N)C(=O)Nc1cc(Br)ccc1Br [LFM-A13] (first compound 0.4 µM, partner dose 2 µM)",cell count,[1],106%
same,cell count,[2],96%
same,cell count,[3],100%
same,cell count,[4],90.5%
same,cell count,[5],49.1%
same,cell count,[6],86.5%
same,cell count,[7],64.5%
same,cell count,[8],101%
same,cell count,[9],90%
same,cell count,[10],77.4%
"C[C@@H](N)c1ccc(C(=O)Nc2ccnc3[nH]ccc23)cc1 + Cc1cc(SCc2sc(-c3ccc(C(F)(F)F)c(F)c3)nc2C)ccc1OCC(=O)O [GW0742] (first compound 0.4 µM, partner dose 2 µM)",cell count,[1],80%
same,cell count,[2],82.7%
same,cell count,[3],76.7%
same,cell count,[4],72.1%
same,cell count,[5],69.4%
same,cell count,[6],99.6%
same,cell count,[7],110%
same,cell count,[8],92.1%
same,cell count,[9],55%
same,cell count,[10],66.5%
"Cn1c(=O)n(-c2ccc(C(C)(C)C#N)cc2)c2c3cc(-c4cnc5ccccc5c4)ccc3ncc21 + O=C(Oc1ccc([N+](=O)[O-])cc1)N1CCC(C(O)(c2ccc3c(c2)OCO3)c2ccc3c(c2)OCO3)CC1 [JZL184] (first compound 0.004 µM, partner dose 1 µM)",cell count,[1],97.1%
same,cell count,[2],97.9%
same,cell count,[3],93.5%
same,cell count,[4],103%
same,cell count,[5],67.5%
same,cell count,[6],91.6%
same,cell count,[7],75.9%
same,cell count,[8],100%
same,cell count,[9],81.9%
same,cell count,[10],78.3%
"Cn1cnc2c(F)c(Nc3ccc(Br)cc3Cl)c(C(=O)NOCCO)cc21 [selumetinib] + C/C(O)=C(\C#N)C(=O)Nc1cc(Br)ccc1Br [LFM-A13] (first compound 0.015 µM, partner dose 2 µM)",cell count,[1],94.2%
same,cell count,[2],93.8%
same,cell count,[3],111%
same,cell count,[4],83.7%
same,cell count,[5],75.2%
same,cell count,[6],80.1%
same,cell count,[7],75.8%
same,cell count,[8],103%
same,cell count,[9],84.6%
same,cell count,[10],59%
"C=CCNC1=C2C[C@@H](C)C[C@H](OC)[C@H](O)[C@@H](C)/C=C(\C)[C@H](OC(N)=O)[C@@H](OC)/C=C\C=C(/C)C(=O)NC(=CC1=O)C2=O [Tanespimycin] + C/C(O)=C(\C#N)C(=O)Nc1cc(Br)ccc1Br [LFM-A13] (first compound 0.002 µM, partner dose 2 µM)",cell count,[1],95.5%
same,cell count,[2],103%
same,cell count,[3],94.9%
same,cell count,[4],75.1%
same,cell count,[5],101%
same,cell count,[6],99.7%
same,cell count,[7],105%
same,cell count,[8],101%
same,cell count,[9],86.6%
same,cell count,[10],107%
"OCc1c[nH]c2ccccc12 [Indole-3-carbinol] + Cc1cc(SCc2sc(-c3ccc(C(F)(F)F)c(F)c3)nc2C)ccc1OCC(=O)O [GW0742] (first compound 0.8 µM, partner dose 2 µM)",cell count,[1],103%
same,cell count,[2],95.1%
same,cell count,[3],92.9%
same,cell count,[4],109%
same,cell count,[5],113%
same,cell count,[6],99.7%
same,cell count,[7],88.6%
same,cell count,[8],115%
same,cell count,[9],109%
same,cell count,[10],98%
"CS(=O)(=O)CCNCc1ccc(-c2ccc3ncnc(Nc4ccc(OCc5cccc(F)c5)c(Cl)c4)c3c2)o1 [lapatinib] + C/C(O)=C(\C#N)C(=O)Nc1cc(Br)ccc1Br [LFM-A13] (first compound 0.8 µM, partner dose 2 µM)",cell count,[1],96.2%
same,cell count,[2],97.3%
same,cell count,[3],86.4%
same,cell count,[4],84.6%
same,cell count,[5],72.4%
same,cell count,[6],98%
same,cell count,[7],100%
same,cell count,[8],83.1%
same,cell count,[9],87.4%
same,cell count,[10],93.3%
"O=C(/C=C/c1cccnc1)NCCCCC1CCN(C(=O)c2ccccc2)CC1 + Cc1cc(SCc2sc(-c3ccc(C(F)(F)F)c(F)c3)nc2C)ccc1OCC(=O)O [GW0742] (first compound 0.01 µM, partner dose 2 µM)",cell count,[1],42.4%
same,cell count,[2],97.6%
same,cell count,[3],105%
same,cell count,[4],43.4%
same,cell count,[5],87.4%
same,cell count,[6],28.6%
same,cell count,[7],105%
same,cell count,[8],87%
same,cell count,[9],92.5%
same,cell count,[10],111%
"CNC(=O)c1cc(Oc2ccc(NC(=O)Nc3ccc(Cl)c(C(F)(F)F)c3)cc2)ccn1 [sorafenib] + O=C(Oc1ccc([N+](=O)[O-])cc1)N1CCC(C(O)(c2ccc3c(c2)OCO3)c2ccc3c(c2)OCO3)CC1 [JZL184] (first compound 0.4 µM, partner dose 1 µM)",cell count,[1],89.8%
same,cell count,[2],102%
same,cell count,[3],91.4%
same,cell count,[4],95.1%
same,cell count,[5],103%
same,cell count,[6],99.6%
same,cell count,[7],108%
same,cell count,[8],81.7%
same,cell count,[9],104%
same,cell count,[10],94.4%
